Laboratory results: the supplement of paper PMC6089552
Out of some 3,200 compounds screened, about 300 (9.4%) showed activity. The entries are a selection whose mix differs from that of the whole data set.

Test system: A673/TR/shEF
Test: cell viability (LOESS-normalised, relative to median of negative controls) (log2 ratio); higher = more viable cells (less compound effect), active = hit call of the paper (over 3 MAD below the median)
Settings: treatment time: 72 h
Method in brief: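 For three days, A673/TR/shEF Ewing sarcoma cells in 384-well plates (1,500 per well) were treated with library compounds at two or more concentrations or with DMSO controls, after doxycycline had been added or withheld 24 h beforehand to induce EWS-FLI1 shRNA knockdown. Viability was read by CellTiter-Glo luminescence on an Envision reader. The data were LOESS-corrected per plate, divided by the median of negative controls and log2-transformed.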

[1] = 0.25 µM, library screen: screen1, EWS-FLI1 expression: high (no doxycycline)
[2] = 0.25 µM, library screen: screen1, EWS-FLI1 expression: low (doxycycline-induced shRNA knockdown)
[3] = 2.5 µM, library screen: screen1, EWS-FLI1 expression: high (no doxycycline)
[4] = 2.5 µM, library screen: screen1, EWS-FLI1 expression: low (doxycycline-induced shRNA knockdown)
[5] = 0.25 µM, library screen: screen2, EWS-FLI1 expression: high (no doxycycline)
[6] = 0.25 µM, library screen: screen2, EWS-FLI1 expression: low (doxycycline-induced shRNA knockdown)
[7] = 2.5 µM, library screen: screen2, EWS-FLI1 expression: high (no doxycycline)
[8] = 2.5 µM, library screen: screen2, EWS-FLI1 expression: low (doxycycline-induced shRNA knockdown)
[9] = 0.025 µM, library screen: screen2, EWS-FLI1 expression: high (no doxycycline)
[10] = 0.025 µM, library screen: screen2, EWS-FLI1 expression: low (doxycycline-induced shRNA knockdown)
[11] = 25 µM, library screen: screen2, EWS-FLI1 expression: high (no doxycycline)
[12] = 25 µM, library screen: screen2, EWS-FLI1 expression: low (doxycycline-induced shRNA knockdown)
[13] = 0.103 µM, library screen: screen3, EWS-FLI1 expression: high (no doxycycline)
[14] = 0.103 µM, library screen: screen3, EWS-FLI1 expression: low (doxycycline-induced shRNA knockdown)
[15] = 0.308 µM, library screen: screen3, EWS-FLI1 expression: high (no doxycycline)
[16] = 0.308 µM, library screen: screen3, EWS-FLI1 expression: low (doxycycline-induced shRNA knockdown)
[17] = 0.926 µM, library screen: screen3, EWS-FLI1 expression: high (no doxycycline)
[18] = 0.926 µM, library screen: screen3, EWS-FLI1 expression: low (doxycycline-induced shRNA knockdown)
[19] = 2.8 µM, library screen: screen3, EWS-FLI1 expression: high (no doxycycline)
[20] = 2.8 µM, library screen: screen3, EWS-FLI1 expression: low (doxycycline-induced shRNA knockdown)
[21] = 8.3 µM, library screen: screen3, EWS-FLI1 expression: high (no doxycycline)
[22] = 8.3 µM, library screen: screen3, EWS-FLI1 expression: low (doxycycline-induced shRNA knockdown)
[23] = 25 µM, library screen: screen3, EWS-FLI1 expression: high (no doxycycline)
[24] = 25 µM, library screen: screen3, EWS-FLI1 expression: low (doxycycline-induced shRNA knockdown)

Measured: cell viability (log2)

C=CC1=C(C)/C(=C/c2[nH]c(Cc3[nH]c(/C=C4\NC(=O)C(C)=C4C=C)c(C)c3CCC(=O)O)c(CCC(=O)O)c2C)NC1=O
inactive: [1] 0.0132 | [2] 0.0277 | [3] 0.0983 | [4] 0.128

COc1cc(OC)cc(C(CNc2ncnc3c2ncn3C2O[C@H](CO)[C@@H](O)[C@H]2O)c2ccccc2C)c1 (stereo partly specified)
inactive: [5] 0.151 | [6] 0.0311 | [7] 0.147 | [8] 0.121

Nc1nc(N)c2nc(-c3ccccc3)c(N)nc2n1
inactive: [1] 0.0758 | [2] 0.0877 | [5] 0.138 | [6] 0.0552 | [3] 0.17 | [4] 0.199 | [7] 0.152 | [8] 0.0662

C=C1CC[C@H](O)C/C1=C/C=C1\CCC[C@]2(C)[C@@H]([C@H](C)/C=C/[C@H](C)C(C)C)CC[C@@H]12
inactive: [1] 0.121 | [2] 0.0629 | [3] 0.203 | [4] -0.0371

O=C(O)c1cc(O)ccc1O
inactive: [1] 0.00691 | [2] 0.0897 | [3] 0.0219 | [4] 0.0883

CC(C)C(=O)c1c(C(C)C)nn2ccccc12
inactive: [5] 0.148 | [6] 0.057 | [7] 0.134 | [8] 0.0577

Nc1ncnc2c1ncn2[C@@H]1O[C@@H]2COP(=O)(O)O[C@H]2[C@H]1O
inactive: [5] 0.0121 | [6] 0.115 | [7] 0.106 | [8] 0.0477

C[C@H]1[C@H]2CC[C@H]3[C@@H]4CC=C5C[C@@H](N(C)C)CC[C@]5(C)[C@H]4CC[C@]23CN1C
inactive: [9] 0.131 | [10] -0.0144 | [1] 0.0254 | [2] 0.0832 | [5] 0.0989 | [6] -0.00762 | [3] 0.0975 | [4] 0.201 | [7] 0.117 | [8] 0.0699 | [11] 0.0599 | [12] 0.0252

O=C(O[C@@H]1Cc2c(O)cc(O)cc2O[C@@H]1c1cc(O)c(O)c(O)c1-c1c([C@H]2Oc3cc(O)cc(O)c3C[C@H]2OC(=O)c2cc(O)c(O)c(O)c2)cc(O)c(O)c1O)c1cc(O)c(O)c(O)c1
inactive: [1] 0.0884 | [2] -0.013 | [3] 0.1 | [4] 0.103

CCOC(=O)c1c[nH]c2c(Cl)c(Cl)ccc2c1=O
inactive: [1] 0.0772 | [2] 0.122 | [3] 0.11 | [4] 0.176

CC(C)NCC(O)COc1cccc2[nH]ccc12 (stereo unspecified)
inactive: [1] 0.0936 | [2] 0.112 | [5] 0.117 | [6] 0.0869 | [3] 0.137 | [4] 0.225 | [7] 0.00803 | [8] 0.0539

CC(C)=CCC[C@@H](C)[C@@H]1CC[C@]2(C)C3=C(CC[C@@]12C)[C@@]1(C)CC[C@H](O)C(C)(C)[C@@H]1CC3
inactive: [1] 0.0545 | [2] -0.00304 | [3] 0.1 | [4] -0.212

OC(CCN1CCCC1)(c1ccccc1)C1CCCCC1 (stereo unspecified)
inactive: [1] 0.0816 | [2] 0.0476 | [3] 0.162 | [4] 0.114

CC1=C(Cl)C(O)=C(Cl)C(=O)C12Oc1cc(O)c(Cl)c(C)c1C2=O (stereo unspecified)
inactive: [1] 0.065 | [2] 0.0174 | [3] 0.111 | [4] 0.157

CC(CN(C)C)CN1c2ccccc2CCc2ccccc21 (stereo unspecified)
inactive: [1] 0.0773 | [2] 0.155 | [5] 0.0969 | [6] 0.0492 | [3] 0.142 | [4] 0.131 | [7] 0.155 | [8] 0.129

COC(=O)[C@H]1[C@H]2C[C@H]3c4[nH]c5ccccc5c4CCN3C[C@H]2CC[C@@H]1O
inactive: [1] 0.0883 | [2] 0.115 | [5] 0.0984 | [6] 0.0351 | [3] 0.105 | [4] 0.043 | [7] 0.121 | [8] 0.0741

C#C[C@]1(O)CC[C@H]2[C@@H]3CCC4=Cc5oncc5C[C@]4(C)[C@H]3CC[C@@]21C
inactive: [1] 0.0524 | [2] 0.136 | [5] 0.115 | [6] 0.123 | [3] 0.0714 | [4] 0.22 | [7] 0.0956 | [8] 0.0512

Cc1cccc(-c2nn3c(c2-c2ccnc4ccc(C(N)=O)cc24)CCC3)n1
inactive: [13] 0.0571 | [14] -0.0167 | [15] 0.0796 | [16] -0.0106 | [17] -0.0323 | [18] 0.0532 | [19] -0.00816 | [20] -0.0468 | [21] -0.0341 | [22] 0.0453 | [23] -0.0652 | [24] 0.0398

COc1ccc(NC(=O)/C(=C/c2cccnc2)NC(=O)c2cccs2)cc1
inactive: [1] 0.123 | [2] 0.163 | [3] 0.1 | [4] 0.101

COc1ccc2c(c1)OC[C@@H](Cc1ccc(OC)c(OC)c1)C2=O
inactive: [1] -0.018 | [2] 0.0264 | [3] 0.11 | [4] 0.0741

O=C(Nc1ccc([N+](=O)[O-])cc1Cl)c1cc(Cl)ccc1O
inactive: [9] 0.126 | [10] -0.00156 | [1] 0.0925 | [2] 0.127 | [5] 0.121 | [6] 0.0336 | [3] 0.154 | [4] 0.0824 | [7] 0.147 | [8] 0.0985 | [11] 0.1 | [12] 0.0854

O=C(O)c1ccc(O)c2c1C(=O)c1cc(O)cc(O)c1C2=O
inactive: [1] 0.0473 | [2] -0.0191 | [3] 0.0745 | [4] 0.0247

CCOc1ccc(Cc2nccc3cc(OCC)c(OCC)cc23)cc1OCC
inactive: [1] 0.0902 | [2] 0.0955 | [3] 0.197 | [4] 0.00613

CC12CC3CC(C)(C1)CC(N)(C3)C2
inactive: [1] 0.0377 | [2] -0.0235 | [5] 0.182 | [6] 0.131 | [3] -0.00435 | [4] 0.0239 | [7] 0.082 | [8] 0.0933

CC(C)=CCc1c(O)cc2oc(C)cc(=O)c2c1O
inactive: [1] 0.0502 | [2] 0.0433 | [3] 0.123 | [4] 0.048

C[C@H](CCC(=O)O)[C@H]1CC[C@H]2[C@@H]3C(O)CC4=CC(=O)CC[C@]4(C)[C@H]3CC[C@]12C (stereo partly specified)
inactive: [1] 0.0418 | [2] -0.00533 | [3] 0.162 | [4] -0.0526

CCC[C@@H]1C[C@@H](C(=O)N[C@@H]([C@H]2O[C@H](SC)[C@H](O)[C@@H](O)[C@H]2O)[C@@H](C)O)N(C)C1
inactive: [13] 0.078 | [14] 0.0133 | [1] 0.123 | [2] -0.0307 | [15] 0.026 | [16] 0.0873 | [17] 0.0618 | [18] 0.077 | [3] 0.161 | [4] 0.176 | [19] 0.0838 | [20] 0.021 | [21] 0.028 | [22] 0.0347 | [23] -0.105 | [24] 0.117

CO[C@H]1C[C@@H]2CC[C@@H](C)[C@@](O)(O2)C(=O)C(=O)N2CCCC[C@H]2C(=O)O[C@H]([C@H](C)C[C@@H]2CC[C@@H](OC(=O)C(C)(CO)CO)[C@H](OC)C2)CC(=O)[C@H](C)/C=C(\C)[C@@H](O)[C@@H](OC)C(=O)[C@H](C)C[C@H](C)/C=C/C=C/C=C/1C
active: [13] -0.862 | [14] -0.712 | [15] -0.972 | [16] -0.713 | [17] -0.859 | [18] -0.683 | [19] -0.839 | [20] -0.886 | [21] -0.828 | [22] -0.678 | [23] -0.905 | [24] -0.717

CN1CCCN=C1/C=C/c1cccs1
inactive: [1] 0.0595 | [2] 0.108 | [3] 0.159 | [4] 0.236

CC(N)=NCc1cccc(CN)c1
inactive: [5] 0.131 | [6] 0.0338 | [7] 0.114 | [8] 0.119

CCC(=O)OCC(=O)[C@@]1(OC(=O)CC)[C@@H](C)C[C@H]2[C@@H]3CCC4=CC(=O)C=C[C@]4(C)[C@@]3(F)[C@@H](O)C[C@@]21C
inactive: [13] 0.116 | [14] 0.0802 | [1] 0.101 | [2] -0.806 | [15] 0.0157 | [16] 0.0752 | [17] 0.114 | [18] 0.0499 | [3] 0.142 | [4] -0.262 | [19] 0.0119 | [20] 0.0676 | [21] 0.0933 | [22] 0.128 | [23] 0.11 | [24] 0.137

CC1(C)O[C@@H]2C[C@H]3[C@@H]4C[C@H](F)C5=CC(=O)CC[C@]5(C)[C@H]4[C@@H](O)C[C@]3(C)[C@]2(C(=O)CO)O1
inactive: [1] 0.0479 | [2] -0.0893 | [3] 0.0397 | [4] -0.262

CC1=CCc2c(cc3oc(C)cc(=O)c3c2O)OC1
inactive: [1] 0.0735 | [2] 0.0537 | [3] 0.178 | [4] 0.174

CC1(C)CC2C1CCC1(C)OC1CCC2(C)O (stereo unspecified)
inactive: [1] 0.0946 | [2] 0.105 | [3] 0.0543 | [4] 0.0438
